# Some of the results follow.
# System: T1, Caupolican (Caup) homeodomain DNA-binding domain
# T1 sequence: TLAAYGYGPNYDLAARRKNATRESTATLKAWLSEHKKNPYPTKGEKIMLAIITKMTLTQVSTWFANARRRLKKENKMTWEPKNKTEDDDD
# Assay: PBM E-score (8-mer, recovered from the published 9-mer minima) (E-score (dimensionless, -0.5 to 0.5)); Drosophila protein; higher = stronger relative binding preference, active = 0.31 or more
# How it was run: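 Caup's homeodomain DNA-binding domain (residues 214-303) was produced by in vitro transcription and translation and applied at 100 nM to custom-designed protein binding microarrays. Each value is an enrichment score giving relative binding preference for a short DNA word; higher means stronger. Published 9-mer scores were the minimum of their two constituent 8-mer scores, and the 8-mer values were recovered from those minima. A cutoff of 0.31 marks candidate binding sequences.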
row,Sequence,PBM E-score
1,CCTCGGGC,inactive: -0.2
2,CGCGAGTA,inactive: -0.0393
3,ACGGAGGA,≥ -0.0286
4,CCACATTA,inactive: -0.00074
5,AACGACGG,inactive: 0.0398
6,CTCACCTC,inactive: -0.164
7,CCAGGGGC,inactive: -0.256
8,CTCCCCCA,inactive: -0.233
9,CCTTGCAG,inactive: -0.13
10,TAACTCAA,inactive: 0.0974
11,GCGAACAC,inactive: 0.0889
12,ATCTGCTG,inactive: -0.00447
13,ATATGCGA,inactive: 0.0126
14,GGCCTCAC,inactive: -0.257
15,AAACTGTG,inactive: 0.0313
16,GATGACAA,inactive: 0.308
17,AGGCGCTC,inactive: -0.165
18,AAAGGCCA,inactive: -0.202
19,AGCAACGC,inactive: 0.00272
20,ACATTACA,active: ≥ 0.37
21,ATACGACA,inactive: 0.279
22,ATAAGAAT,inactive: 0.0932
23,AATTAACC,inactive: 0.0386

row,Sequence,PBM E-score
1,AAAGCTAT,≥ 0.0808
2,AATGCACC,inactive: 0.0591
3,CATAGAGC,inactive: -0.154
4,CTGGAAGC,inactive: -0.133
5,CAAGTGAC,inactive: 0.111
6,CTGAGGTC,inactive: -0.105
7,CTGGGTTA,inactive: 0.0205
8,GAGGTTCC,inactive: -0.104
9,CCTCTTGC,inactive: -0.15
10,GAACGCCA,inactive: -0.0726
11,ACCCGGTA,≥ -0.0214
12,TGCTTGAA,inactive: 0.0948
13,ACTGACTC,inactive: -0.0277
14,GATCCATA,inactive: 0.0181
15,CAGCTGAG,inactive: -0.135
16,ACAGCAGC,inactive: 0.0234
17,CACTCCAG,inactive: -0.0909
18,AACTTGAT,inactive: 0.12
19,AGTAGTAT,inactive: 0.21
20,GGACGTAC,inactive: 0.0119
21,CTATACCA,inactive: 0.0824
22,CGAGTCAG,inactive: -0.135
23,AGTGAGAC,inactive: -0.0174

row,Sequence,PBM E-score
1,TCATGGGA,inactive: 0.0206
2,CTAGGCGC,inactive: -0.183
3,GAAGTAAA,inactive: 0.1
4,AATGCCTA,inactive: -0.0311
5,CGACGGCG,inactive: -0.248
6,CGCCAATA,inactive: -0.00227
7,ACTTACCT,inactive: 0.0223
8,TGCAGACA,≥ 0.116
9,CTTTCAGA,inactive: -0.00514
10,AAGGCTGC,inactive: -0.174
11,GTCCAAAA,inactive: 0.0967
12,AATCGTGC,inactive: 0.105
13,CAACGAGC,inactive: 0.0301
14,AACGACAT,active: 0.358
15,AAAAAGTC,inactive: 0.0371
16,CTGAACCA,inactive: 0.0748
17,TGAATCCA,inactive: 0.0558
18,CTAGTCGA,inactive: 0.0588
19,GACCATGA,inactive: 0.00617
20,CCTGCACC,inactive: -0.208
21,GAAGTATA,inactive: 0.0466
22,GAGCATGA,inactive: 0.0786
23,GCGTTCTA,inactive: 0.00468

row,Sequence,PBM E-score
1,AAAGATGG,inactive: 0.00926
2,CATTATCC,inactive: 0.0994
3,CACGGTAC,inactive: 0.1
4,CCAGAACA,inactive: 0.218
5,AAAACTAG,inactive: 0.0928
6,GCAAAGCC,inactive: -0.295
7,ATCGTTTC,inactive: 0.057
8,GAGGAGCA,inactive: -0.177
9,ACTAAGTG,inactive: 0.0303
10,TCTTGACA,inactive: 0.202
11,CGGTCTAA,inactive: -0.0391
12,CGGGCGTA,inactive: -0.248
13,CAGCACCA,inactive: -0.00464
14,TAGGCTCA,inactive: -0.0966
15,CGGAGCGC,inactive: -0.256
16,GTTCTGAA,inactive: 0.167
17,ATTGGTGC,inactive: -0.0296
18,GCGGCGCA,inactive: -0.136
19,CTATACAA,inactive: 0.249
20,TAATAATA,inactive: 0.254
21,CGATGTTC,inactive: 0.249
22,GGTCCGGA,inactive: -0.114
23,GGCAGCAC,inactive: -0.168

row,Sequence,PBM E-score
1,CTTGGAAC,inactive: 0.0312
2,CACAACTG,inactive: 0.124
3,AAATAGCC,inactive: -0.0559
4,CAGATCCG,inactive: -0.0762
5,GGCTAGGA,inactive: -0.114
6,GTTCGGAA,inactive: -0.00684
7,ACGGATGA,inactive: 0.0197
8,TCAGCACA,≥ 0.107
9,ATCCAGAT,inactive: -0.0852
10,ACGTTAGT,inactive: 0.0169
11,CCCCTTCA,inactive: -0.232
12,CTCCATGC,inactive: -0.107
13,AATCCGCC,inactive: -0.182
14,AAATGCTT,inactive: 0.0672
15,CCGATCGG,inactive: -0.148
16,ACCTTCGT,inactive: -0.0522
17,CTCTTTCA,inactive: -0.0825
18,CGTCAGAA,inactive: 0.0382
19,GAGTCGGC,inactive: -0.139
20,AGGGTGTG,inactive: -0.0575

# Reference: the supplement of paper PMC3724861
